The record followed here is the RNAGym collection of RNA variant scans (doi:10.1093/nar/gkz1192).

The source gives no read counts; variants with many changes may rest on few reads.

B1: CPEB3 Ribozyme (parent)
chain: UAACAGGGGGCCACAGCAGAAGCGUUCACGUCGCAGCCCCUGUCAGAUUCUGGUGAAUCUGCGAAUUCUGCUGUAUAUCUC

In the data set the parent is B1. As to the kind of experiment: self-cleavage, relative activity (ratio to wild type); higher = more cleavage; in vitro, sequencing. The essentials: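 After error-prone PCR and barcoding, CPEB3 ribozyme mutant libraries were transcribed with T7 RNA polymerase at 37°C for 5 hours, then given 15 min with DNase I before an EDTA stop, and they cleaved during both steps. Reverse transcription with template switching preceded Illumina sequencing. Relative activity divides a variant's cleaved/total read fraction by the unmutated ribozyme's. At least 5 reads were required per variant, and three batches were averaged.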
Consider G24C A35U G36C U66C, for which the self-cleavage was 0.08.

Take A21G U69A U72A U74C: the self-cleavage is 0.07.

In the case of A21G U43C U78C, the self-cleavage came out at 0.66.

G22C U60A U69G: the self-cleavage came to 0.14.

G22C C34A A65U U74C: the self-cleavage is 0.11.

With C23A A45G C50G U54A A57G, the self-cleavage was 0.14.

As for A21U U31A U41C U51C U67G U69C, the self-cleavage was 0.1.

As for G24A A45U G70C, the self-cleavage was 0.15.

With A21G U31C U51C U78C U80C, the self-cleavage was 0.12.

As for A21G U31C U49C, the self-cleavage came to 0.22.

A21U A28U C40A A77G: the self-cleavage is 0.05.

With G24A A57G U58C U69G A77C, the self-cleavage worked out at 0.04.

Consider G24A A28U G30U G46A U60C U80C, for which the self-cleavage is 0.06.

As for A21G U69C U80C, the self-cleavage was 0.24.

With G24A U26A U48C U69C, the self-cleavage amounted to 0.08.

For the variant G24C U26C A35C A47C U60A, the self-cleavage worked out at 0.09.

Take A21U U41A U78A: the self-cleavage turned out to be 0.25.

As to A21U U41C G53A A64G, the self-cleavage was 0.31.

G24U U26A U43C G46U U51C: the self-cleavage is 0.11.

G24C C37U U54C U67C: the self-cleavage is 0.09.

Regarding G24A A56G U72G, the self-cleavage came out at 0.14.

As to G24A U48C C59A U67C, the self-cleavage was 0.15.

G22U U48G U49A G52A U58C U69A: the self-cleavage was determined as 0.07.

Consider A21G U43G A64G, for which the self-cleavage came to 0.23.

With G24A U41C U67C, the self-cleavage stood at 0.28.

In the case of A21U U26C U51A A64G U80C, the self-cleavage is 0.14.

A21G U60C U78C: the self-cleavage stood at 0.12.

In the case of A21G U48C U51C, the self-cleavage worked out at 0.19.

With C23A A35U U49A U69G U72G U78A, the self-cleavage was 0.07.

Take C23G A28U U49A U54A U78C: the self-cleavage is 0.14.

In the case of A21U G52U U67C, the self-cleavage amounted to 0.53.

Consider C23A A35U U41A A45G U72G, for which the self-cleavage was found to be 0.67.

Regarding G24C U31C U41A U74C, the self-cleavage came to 0.13.

On to A21U A45U U51C, for which the self-cleavage is 0.15.

For A21U U41C U76A, the self-cleavage is 0.41.

As for C23U C32U A35G U66C A77G, the self-cleavage worked out at 0.13.

As for G24A A47G U49A C50U U80C, the self-cleavage was 0.16.

A21G U48C C68U U69A U72G: the self-cleavage was determined as 0.04.

Consider G24U U43C A56U U80C, for which the self-cleavage came to 0.1.

As to A21G U41A G53U, the self-cleavage is 0.22.

A21G U31G U48C: the self-cleavage was found to be 0.12.

Consider U25A A47G U74A A75U, for which the self-cleavage stood at 0.17.

As for C23U C32A U51A, the self-cleavage was 0.21.

As to G24A U25A U58A U80C, the self-cleavage amounted to 0.17.

Consider G24A A28G U31C C38U A57G U76C, for which the self-cleavage turned out to be 0.07.

With A21U U48C A65G U76C, the self-cleavage came to 0.05.

Regarding G22U A64U U72C, the self-cleavage was 0.11.

Regarding G22A G30C U43C A56G U67A, the self-cleavage is 0.08.

As for G24A U25C A35U, the self-cleavage is 0.2.

For the variant U25A A45U A56U A64U, the self-cleavage is 0.11.

In the case of G24A A28G G46A, the self-cleavage was 0.08.

As for A21U G30A A35G U48C U51G U72C, the self-cleavage was found to be 0.05.

Turning to G22U U54C A56G U58C, the self-cleavage was 0.07.

Take A21U G46A U80C: the self-cleavage was found to be 0.09.

For C23U U58A U66A, the self-cleavage was 0.07.

Turning to G24A U25C U74C C81G, the self-cleavage came to 0.21.

Consider C23U U49G A65G, for which the self-cleavage was 0.17.

Take G24A C40U U43C U54C U60C U72C: the self-cleavage was determined as 0.11.

Regarding G24A A28G C81A, the self-cleavage was 0.19.

As to A21G U43C U48C, the self-cleavage stood at 0.09.

Regarding G24A U74G U78A, the self-cleavage came to 0.17.

For A21U A28U C40A U58C U60C U78A, the self-cleavage stood at 0.06.

Take C23G U41C A57G: the self-cleavage came to 0.15.

In the case of A21G U31C U49A U67A, the self-cleavage was determined as 0.35.

As to C23G U41G A56U A64G, the self-cleavage was determined as 0.09.

In the case of G24A U31G C38U U48C U69A, the self-cleavage was 0.12.

Regarding G24A C38G U49C G73C, the self-cleavage amounted to 0.1.

On to G24A C29U U41A, for which the self-cleavage was 0.16.

Turning to A21U A56U A65G U69C, the self-cleavage amounted to 0.07.

Regarding G24A A56G U66C, the self-cleavage amounted to 0.05.

As to A21G U48C U69C, the self-cleavage was 0.19.

Take C23G A47G U80G: the self-cleavage is 0.07.

For the variant C23U A47U U60C, the self-cleavage is 0.07.

Turning to A21U A56U G70C, the self-cleavage was 0.1.

Regarding A21G U76A A77G, the self-cleavage worked out at 0.72.

For G24A U31A A47U U58C U60C A64G C81U, the self-cleavage came to 0.06.

Consider C23G U25G A47G, for which the self-cleavage was found to be 0.23.

For C23A U41C U48C U72C, the self-cleavage was determined as 0.07.

G24A A65G U69A: the self-cleavage is 0.13.

G22U A28G U49C A77U: the self-cleavage stood at 0.12.

In the case of G24A A64G U67C, the self-cleavage worked out at 0.2.

As for C23G U41C A45U U48C A77G, the self-cleavage came to 0.34.

A21U U26A A57G U58C U76A: the self-cleavage is 0.14.

Turning to C23G U25C C68U U78A, the self-cleavage worked out at 0.04.
